Assay results from PubChem BioAssay AID1240 (Sanford-Burnham Center for Chemical Genomics, 2008).
Hit rate of the full screen: of about 50,000 compounds, about 800 (1.6%) showed an effect of 50% or more. The list shows a part of the results.

Biological target: Bcl-2-like protein 10 (Homo sapiens) (UniProt Q9HD36)
Experiment: Phenotype converters, Bcl-B/TR3 peptide binding displacement, primary biochemical FP (AID 1240);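 further: 0% = Bcl-B with tracer peptide and DMSO and 100% = tracer peptide lacking Bcl-B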
Conditions: GST-Bcl-B / FITC-TR3 peptide fluorescence polarization; stronger effect = higher value; compound at 3.75 mg/L

Sequence of UniProt Q9HD36 (Q9HD36 whole entry, looked up): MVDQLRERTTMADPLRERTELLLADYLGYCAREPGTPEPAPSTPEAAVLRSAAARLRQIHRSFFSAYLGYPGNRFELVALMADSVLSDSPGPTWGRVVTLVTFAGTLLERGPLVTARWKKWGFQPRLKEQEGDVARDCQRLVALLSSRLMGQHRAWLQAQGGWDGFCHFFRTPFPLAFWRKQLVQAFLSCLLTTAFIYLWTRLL

First: O=C1NC(=Nc2ccc(Br)cc2)S/C1=C\c1ccccc1[N+](=O)[O-]
Second: N/C(=N\OC(=O)/C=C/c1ccccc1)c1ccc(Br)cc1
The displacement of the first is higher: 14.8% for the first, -2.7% for the second.

Compared with O=C(Nc1ccc(F)c([N+](=O)[O-])c1)c1ccc(OCc2ccccc2)cc1, Cc1ccc(S(=O)(=O)N(Cc2ccccc2)c2ccccc2C(=O)Nc2ccc(C)c(C)c2)cc1 is lower in displacement: 16.9% for the first, 3.2% for the second.

Going from O=C(O)c1ccc(-n2ncc(Cl)c(Cl)c2=O)cc1 to COc1ccc(C(=O)c2cnc[nH]2)cc1, the displacement falls from 11.4% to 0.3%.

Going from COc1ccc(Br)cc1Cn1c(=O)[nH]c2cc([N+](=O)[O-])ccc21 to COc1ccc(OC)c(CNc2cc([N+](=O)[O-])ccc2OC)c1, the displacement falls from -4.5% to -26.7%.

Compared with COc1ccc(COC(=O)C2=C(C)NC3=C(C(=O)CCC3)C2c2coc3ccc(C)cc3c2=O)cc1 (centres undefined), COc1ccc(C2CC(=O)C3=C(C2)Nc2ccccc2NC3c2cc(OC)c(OC)cc2Br)cc1 (centres undefined) is higher in displacement: -5.1% for the first, 14.5% for the second.

First: Cc1ccc(-n2c(C)cc(/C=C3\NC(=S)NC3=O)c2C)cc1C
Second: CCc1cc(C)cc(OCCOc2ccc(/C=C3/SC(=S)N(C)C3=O)cc2)c1
The displacement of the first is lower: -1.9% for the first, 6.7% for the second.

Compared with Cc1ccc(C(=O)N/C(=C/c2ccco2)c2nc3ccccc3[nH]2)cc1, Cc1ccc(NC(=S)NC(=O)/C=C/c2ccccc2)c(C)c1 is higher in displacement: 0.8% for the first, 1.1% for the second.

First: CCN1CCN(C(=O)c2cc([N+](=O)[O-])cc([N+](=O)[O-])c2)CC1
Second: COc1cc(OC)cc(C(=O)N2CCN(Cc3ccccc3[N+](=O)[O-])CC2)c1
The displacement of the first is higher: 10.6% for the first, 8.4% for the second.

Going from COC(=O)Nc1ccc2c(c1)N(C(=O)CCN(C)C)c1ccccc1CC2 to CCOc1ccc(N(CC(=O)N2CCN(c3ccccc3OC)CC2)S(C)(=O)=O)cc1, the displacement falls from -0.3% to -1.6%.

Going from Cc1c(Cc2ccccc2)c(=O)oc2c(C)c(OCC(=O)N(C)C)ccc12 to Cc1ccc(N(CC(=O)N(Cc2ccccc2)Cc2ccccc2)S(C)(=O)=O)cc1Cl, the displacement rises from 8.9% to 14.5%.

First: Cc1cc(-c2ccco2)c(C#N)c(=S)[nH]1
Second: COc1ccc(C(=O)/C=C/Nc2ccccn2)c(OC)c1
The displacement of the first is higher: 4% for the first, -8% for the second.

Compared with NC(=O)c1cc(NC(=O)COc2ccc(F)cc2)c(Cl)cc1Cl, COc1ccc(C2=Nc3ccccc3NC(c3ccc(F)cc3)C2)cc1 (centres undefined) is lower in displacement: -4% for the first, -52.4% for the second.

First: O=C(N/N=C\c1cc(Br)ccc1O)c1cnccn1
Second: O=[N+]([O-])c1cccc(/C=N/Nc2ccc3nnnn3n2)c1
The displacement of the first is lower: -10.7% for the first, 0.8% for the second.

First: COc1ccc(CN2CCN(C3CC4CCC3C4)CC2)c(OC)c1OC (centres undefined)
Second: O=C(c1nn2c(C(F)(F)F)cc(-c3ccccc3)nc2c1Cl)N1CCCC1
The displacement of the first is lower: -2.9% for the first, 22.7% for the second.

O=C(Nc1sc2c(c1C(=O)O)CCCCC2)c1cccs1 was tested, and the displacement was -10.6%.
